# System: Hepatitis infect.Canis
# Parameters: species or system Dogs
# Settings: dog, in vivo
smiles,measurement,value
Nc1ccc(N=Nc2ccccc2)c(N)n1,% recovered,100%
same,cured,17

# From patent EP0312132A2 (priority 1987, dated 1989)
